Measured values published in the supplement of paper PMC7335073.
In all, about 4,100 sequences were measured (“relative CpG methylation activity (normalised to average over all NNNCGNNN flanks)”: median about 0.87, highest 2% from about 2.4 on). The list shows a part of the results.

What follows are sequences tested against DNMT3A catalytic domain (mouse) (UniProt O88508) (assay: relative CpG methylation activity (normalised to average over all NNNCGNNN flanks) (relative (1 = mean)); higher = more methylation of the central CpG). Conditions: system: in vitro, murine catalytic domain; CpG state: hemimethylated substrate pool; residues: 608-908.
Experimental: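 Deep enzymology: a pool of dsDNA substrates with a central CpG flanked by 10 random nucleotides on each side was methylated by the murine DNMT3A or DNMT3B catalytic domain (0.8 mM SAM, 37 °C, 60 min). Methylation was then read out by hairpin ligation, bisulfite conversion and NGS. Values are the average methylation of each NNNCGNNN context (±3 flanks; the outer flanks are random and averaged over), normalised to the overall mean, so 1 = average activity.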

Sequence | relative CpG methylation activity
GCACGACT | 1.18
GCCCGTTT | 0.909
CGACGTGC | 0.326
CCTCGAAA | 1.21
TTTCGCGT | 1.33
AATCGCTT | 1.05
AAGCGTGC | 0.148
CGACGCAC | 0.839
GTCCGCGT | 1.71
CGTCGCAG | 0.432
ACCCGGAG | 0.341
CTTCGATA | 1.19
TGGCGCGC | 0.482
TTACGGCA | 1.83
TACCGATC | 1.47
GGACGCTC | 1.28
GTTCGCTG | 1.46
CCGCGACG | 0.894
CATCGCCT | 1.25
TCCCGGAT | 0.748
CCCCGACC | 1.63
GCCCGCAA | 0.822
GTTCGCCA | 1.76
ACACGCCA | 2.02
GTGCGTTC | 1.2

Sequence | relative CpG methylation activity
ACCCGGAT | 0.573
ACACGGCG | 1.02
ACGCGTAA | 0.973
TCGCGATT | 0.833
TACCGCGG | 0.413
AACCGCAA | 0.888
ATACGCCA | 2.6
CGGCGGGA | 0.484
TGGCGATA | 0.575
CTTCGTAG | 1.01
GGCCGAAC | 0.982
CGTCGAAA | 0.684
GTTCGCGA | 1.03
TAGCGATG | 0.185
GATCGTAC | 0.376
GAGCGGTC | 0.845
AGTCGTCA | 0.662
AAACGTGG | 0.174
CTTCGATG | 0.526
TCGCGGGA | 0.846
CATCGTAT | 0.191
TGACGTTA | 0.6
TCACGAAC | 1.69
CTCCGCGA | 1.63
GCGCGACG | 0.797

Sequence | relative CpG methylation activity
TTGCGATG | 0.833
TTCCGCGT | 1.64
ATCCGACG | 1.55
TGTCGTAT | 0.455
CCGCGGCT | 1
GGACGGTA | 0.661
CGGCGTAA | 0.615
ACACGCAG | 0.72
AGGCGTGC | 0.36
TAGCGGAG | 0.152
ACCCGTTT | 1.09
CCACGGAA | 1.24
TATCGTCC | 1.31
GGTCGCAC | 0.808
CTTCGCTA | 1.66
TCGCGCGG | 0.476
CTTCGGTA | 0.721
AAGCGGCG | 0.349
TGCCGATA | 0.785
CGACGAGA | 0.567
CGGCGTGC | 0.221
TAGCGTCC | 1.13
CTCCGCTG | 1.82
CGTCGCAT | 0.8
GATCGAAC | 0.6

Sequence | relative CpG methylation activity
GGCCGTAC | 0.986
TACCGTTG | 0.4
ACCCGAAA | 1.34
TCCCGAAG | 0.61
CGTCGAAG | 0.31
TCCCGGCC | 1.53
GAACGGGA | 0.926
GATCGGTA | 0.107
CGTCGCTT | 1.8
GGACGTGG | 0.0641
CGCCGATC | 1.11
TCGCGTGG | 0.5
AGCCGAAC | 1.25
GACCGCAA | 0.849
CAGCGCGT | 0.305
AGGCGAAG | 0.25
GTACGTCA | 2.5
AGTCGTAG | 0.0575
CTGCGAGT | 1.48
ATTCGCGT | 0.75
CAACGCTC | 1.36
CTACGACG | 1.5
GCGCGGGA | 0.556
CGGCGGCC | 0.805
AATCGGCT | 0.417

Sequence | relative CpG methylation activity
CGACGGTT | 0.546
TACCGCAT | 0.802
AGTCGTGC | 0.343
AGGCGACA | 0.638
ATCCGTGG | 0.315
TTGCGCCC | 2.61
GACCGATT | 0.895
ATGCGCGC | 1.5
TCCCGGTC | 1.11
GCCCGGTT | 1.03
TGCCGTAT | 0.586
GCCCGCTT | 1.72
ATACGGAA | 1.75
GGACGCTA | 1.09
GGTCGACG | 0.122
AGACGGAT | 0.485
GAACGCGA | 0.441
CTGCGCGG | 0.536
AGGCGTTA | 0.256
GCTCGCAT | 1.17
ACACGGTC | 1.41
CGGCGTCG | 0.774
TGTCGTGG | 0.204
CCCCGAAG | 0.825
TGGCGGCA | 0.395

Sequence | relative CpG methylation activity
GTTCGGGG | 0.025
TGACGCAT | 0.9
TCGCGTCA | 1.2
TAACGAGG | 0.426
TCCCGGAA | 1.15
CCTCGTTT | 0.481
ACTCGTTG | 0.62
GTTCGAAA | 0.915
TCACGATA | 1.06
ACGCGAGA | 0.663
ACTCGGCG | 1.24
CGTCGTTC | 0.509
TACCGGTG | 0.22
CTTCGTTT | 1.1
TCGCGAAC | 0.985
AAACGCCA | 1.15
CATCGATC | 0.837
TTTCGCGG | 0.159
GGGCGGTT | 0.476
GGGCGCTT | 1.67
TCGCGGAT | 0.281
CCGCGGCA | 0.866
TCGCGATC | 1.01
AATCGTAG | 0.171
ACACGCGC | 1.64

Sequence | relative CpG methylation activity
TTCCGTTG | 1.18
ATACGTGC | 1.05
GTTCGACC | 0.821
AGCCGAAA | 0.828
CCTCGCTC | 2.03
AATCGACT | 0.417
ACTCGAGA | 0.634
TAGCGCAG | 0.248
ACCCGCTA | 1.22
AGACGCGA | 0.543
GAGCGCAG | 0.388
ACACGCCG | 1.92
CACCGACA | 0.997
AAACGATA | 0.538
TTACGGGT | 1.65
TCCCGCTA | 1.67
TTGCGTAA | 1.77
AGCCGGTA | 0.514
CCTCGCGC | 1.11
TGCCGGTC | 0.693
GTACGATA | 1.75
GCGCGTGG | 0.25
CCACGAAC | 1.73
TTACGATC | 2.17
TTACGCCG | 2.29

Sequence | relative CpG methylation activity
GGCCGGGA | 0.878
AGACGGCT | 1.08
TGCCGAAG | 0.484
GCTCGTAG | 0.494
CTCCGTCT | 1.84
GCTCGCCC | 1.8
CAACGAGA | 0.542
CCGCGGTA | 0.625
CAACGAGG | 0.472
TTACGAAG | 1.32
GTCCGAGC | 2.16
GTTCGCAT | 1.26
CAGCGGGG | 0.352
GGTCGTGT | 0.0893
GTACGAGT | 1.55
AAGCGTGG | 0.153
TGACGTGC | 0.393
ACCCGAAC | 1.68
CCCCGCCT | 2.14
TTACGGAC | 2.21
CCACGGGA | 0.786
CTACGGCC | 1.99
TGTCGGAC | 0.385
GTACGATT | 1.67
CCGCGTCC | 1.29

Sequence | relative CpG methylation activity
GAGCGGAG | 0.268
GGCCGCTC | 1.64
GGACGTCA | 1.07
CGTCGCTG | 0.963
CGGCGAAG | 0.198
TTTCGTTG | 0.873
TTCCGGCT | 1.83
ATACGTAA | 2.01
TGACGCAG | 0.352
AGCCGTCT | 1.08
CCCCGGCA | 1.45
CTCCGATG | 0.927
GCTCGAAT | 0.774
AACCGGGT | 0.688
TTACGTAC | 2.06
CCCCGCTG | 1.21
GCTCGTGC | 0.519
AACCGGTT | 0.478
TTGCGTAG | 1.15
